# Data as given in the supplement of paper PMC12217912.
# Some of the results follow. Sequences were assembled here from the parent chain. Inactive controls read about 0.05.
# B1: TEV protease; numbered along this chain (parent)
# chain: MGESLFKGPRDYNPISSSICHLTNESDGHTTSLYGIGFGPFIITNKHLFRRNNGTLVVQSLHGVFKVKDTTTLQQHLVDGRDMIIIRMPKDFPPFPQKLKFREPQREERICLVTTNFQTKSMSSMVSDTSCTFPSGDGIFWKHWIQTKDGQCGSPLVSTRDGFIVGIHSASNFTNTNNYFTSVPKNFMELLTNQEAQQWVSGWRLNADSVLWGGHKVFMVKPEEPFQPVKEATQL
# Variants of: B1
# Test: raw area under fraction-flipped curve 0-4 h after induction (AUC4h, not background-subtracted), DNA-recorder readout of cleavage of the substrate (dimensionless); higher = more cleavage of the substrate by the protease variant
# Conditions: temperature: 34 °C; time window: 0-4 h after rhamnose induction
# Method: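 In vivo DNA recorder in E. coli TOP10(DE3) ΔrhaA at 34 °C. Each TEVp single-site mutant (parent TEVp 0) is paired with a single-site variant of the 7-mer TEVs (canonical ENLYFQ|S). The substrate sits between flexible linkers in a Bxb1-sfGFP-TEVs-SsrA fusion, so cleavage stabilises Bxb1 and speeds flipping of a recombination array, read by NGS. The value is the raw area under the fraction-flipped curve over 0-4 h after rhamnose induction (AUC4h), with ≥20 reads per time point. It is not background-subtracted; inactive controls average about 0.047.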
# 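Further: Bxb1 expression induced with 0.2% (w/v) L-rhamnose at OD600 near 0.5, cultures sampled hourly, flipped fraction per protease–substrate barcode pair counted by paired-end Illumina sequencing.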
Variant,area with substrate ENLYFQA,area with substrate ENLYFQC,area with substrate ENLYFQE,area with substrate ENLYFQG,area with substrate ENLYFQH,area with substrate ENLYFQI,area with substrate ENLYFQL,area with substrate ENLYFQM,area with substrate ENLYFQN,area with substrate ENLYFQQ,area with substrate ENLYFQR,area with substrate ENLYFQS,area with substrate ENLYFQT,area with substrate ENLYFQV,area with substrate ENLYFQW,area with substrate ENLYFQY,area with substrate ENLYFQD,area with substrate ENLYFQK,area with substrate ENLYFQP,area with substrate ENLYFQF
S123V,0.125,0.141,0.0768,0.0993,0.0709,0.0447,0.0453,0.0817,0.0634,0.098,0.0496,0.103,0.0588,0.063,0.058,0.0808,–,–,–,–
S60Y,0.0928,0.106,–,–,–,0.0684,0.0733,–,–,–,0.0475,0.0984,0.061,0.119,0.0724,0.0275,0.066,0.0099,0.0628,–
G28E,0.0835,0.12,–,0.103,0.0708,–,0.0605,0.0958,0.0774,0.0669,–,0.0936,0.0577,0.0587,0.0574,0.0662,–,0.0654,–,–
M83I,0.0948,0.0986,–,–,0.0196,0.0681,0.0571,–,0.057,–,0.0718,0.081,0.0625,–,0.0746,–,–,–,0.105,–
I19F,0.0625,0.0748,–,0.0733,0.0889,0.0629,0.0564,–,–,–,0.0566,0.0696,0.0572,0.0551,0.0609,0.0659,0.0865,0.0619,0.0579,0.0662
C20H,0.0578,0.0546,–,0.0457,0.0526,0.0601,0.0483,–,0.0485,–,–,0.0507,0.0474,0.0225,0.0342,–,–,–,0.0394,–
I164W,0.0475,–,–,–,–,–,0.0461,0.0603,0.0533,–,0.0567,0.0575,–,0.0595,0.0371,–,–,0.0453,0.0571,–
T44C,0.0947,0.0916,–,–,0.0749,0.0523,0.0579,0.04,0.0739,–,0.0588,0.0919,0.0651,0.0358,0.0629,–,0.0729,0.0571,0,0.0717
F163L,0.12,0.0937,–,–,–,0.0586,0.0696,–,0.0883,–,0.0567,0.106,0.0678,0.0845,0.0769,–,0.07,0.0438,–,–
L190W,0.0734,0.0757,–,0.0753,0.0657,0.0559,–,0.0729,0.0532,0.0826,0.066,0.0823,0.0781,–,0.0839,–,–,–,0.0674,–
V165S,0.0447,–,–,–,–,0.069,–,–,0.0538,0.0476,0.051,0.0538,0.0522,0.0446,0.0478,–,–,0.0571,–,0.0575
M122W,0.0951,0.11,–,–,–,–,0.0646,0.0889,–,0.075,0.0533,0.106,0.0693,0.0351,0.0801,–,–,0.0466,–,–
D82W,0.0587,0.0574,–,0.0584,–,0.0585,0.0534,0.055,0.0369,–,0.0807,0.0548,0.0508,–,0.0463,0.0528,–,0.0284,–,–
